# Source: PubChem BioAssay AID651820 (National Center for Advancing Translational Sciences (NCATS), 2012)
# About 12,000 (3.5%) of roughly 340,000 compounds were called active. This list was built around the results that the source calls inconclusive (neither active nor inactive); the mix of calls is not that of the screen. Calls come from the whole dose curve; as a rule, active = well fitted inhibition curve with a large enough effect; inconclusive = small, poorly fitted or top-dose-only effect, or another doubt; inactive = no such curve, though single readings can be large or run the other way. No potency is given beside an inconclusive call; the fits are too rough.
# Test: qHTS Assay for Inhibitors of Hepatitis C Virus (HCV)
# Conditions: Huh7.5.1 HCVcc-Cre (HCVcc is cell-culture hepatitis C virus) infection, luciferase reporter, 44 h; activity change, negative = inhibition: at 41.8 µM (top of the series) unless noted
# Method in brief: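 Infectious HCV cell culture screen: compound-treated cells (1,000/well, pre-plated 4 h) are infected with HCVcc-Cre at roughly 0.5 moi and grown 44 h. Infection is quantified by luciferase signal after 15 min substrate incubation at room temperature.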
# % is set by controls: 0 for no effect and ±100 for the full control effect; potency is the fitted concentration of half-maximal effect; tags give direction and shape of the fitted curve.
SMILES,Potency,"activity change, negative = inhibition"
CC(OC(=O)Cc1ccccc1F)C(=O)Nc1ccc(Cl)cn1 (configuration not stated),"inconclusive [inhibitor, single point]",
Cc1cc(C)n(CC(=O)NNC(=O)c2cccc(C(F)(F)F)c2)n1,,inactive: 7.35%
C=CCOc1cccc(C2C(C(=O)c3ccco3)=C(O)C(=O)N2Cc2ccco2)c1 (configuration not stated),,inactive: 17.6%
CCOC(=O)c1c2ccc(OCC(=O)NN)cc2n2ccccc12,"inconclusive [inhibitor, partial curve]",
O=C(Oc1ccccc1)c1ccccc1C(=O)Oc1ccccc1,,inactive: -4.57%
Cc1ccc2nc3c(cc2c1)c(NC(=O)C(C)(C)C)nn3CC(C)C,"inconclusive [inhibitor, single point]",
O=C(OCC(=O)N1CCN(C(=O)c2ccco2)CC1)c1ccccc1Cc1ccccc1,"inconclusive [inhibitor, partial curve]",
CCOc1ccc2c(C)nc(NC3=NC(C)(C)C=C(C)N3)nc2c1,active: 5.01 µM,
CCOc1ccc(CCNC(=O)C2CCCN(c3nnc(-n4cccc4)s3)C2)cc1OCC (configuration not stated),"inconclusive [inhibitor, partial curve]",
CC(C)(C)OC(=O)C[C@@H]1C/C=C\C[C@@H](CC(=O)N[C@@H](CO)Cc2ccccc2)C(=O)NCCOC1=O,"inconclusive [inhibitor, partial curve]",
Cn1nnnc1NCc1cccc(Cl)c1,,inactive: 7.97%
Nc1nc(COc2ccc(F)cc2)nc(N2CCCCC2)n1,,inactive: -24.8%
CCN(CC)C(=O)OCCc1cc2ccccc2c(=O)o1,,inactive: -3.46%
CC(C)C[C@H](NC(=O)c1[nH]cnc1C(=O)N[C@@H](Cc1ccccc1)C(=O)OCc1ccccc1)C(=O)OCc1ccccc1,,inactive: 19.4%
Cc1nnc(SCC(=O)Nc2cccc([N+](=O)[O-])c2)n1CC1CCCO1 (configuration not stated),,inactive: 16.6%
O=C(CN1C(=O)NC2(CCCC2)C1=O)N1CCN(S(=O)(=O)c2ccc(Cl)c(C(F)(F)F)c2)CC1,,inactive: 17.8%
Cn1cc(Cl)c(C(=O)N/N=C/c2ccc3c4c(cccc24)CC3)n1,"inconclusive [inhibitor, partial curve]",
O=C(c1ccc(-c2ccccc2)cc1)C1CCCN(C(=O)c2cncs2)C1 (configuration not stated),"inconclusive [inhibitor, single point]",
Nc1nnc(SCc2coc(-c3ccc(Cl)cc3)n2)s1,"inconclusive [inhibitor, full curve]",
CCN(CC)c1ccc(/C=N/Nc2nc3ccccc3[nH]2)c(O)c1,active: 5.62 µM,
O=c1[nH]c(Cc2ccccc2Cl)nc2ccccc12,,inactive: 0.928%
CCOc1ccc(Nc2nc(N)nc(CCl)n2)cc1,active: 0.562 µM,
